According to patent US12275686B2, “NO donor compound, preparation method thereof, pharmaceutical composition comprising same, and use thereof” (SOUTHEAST UNIVERSITY, priority 2022, dated 2025):
Some entries share one result that the patent states for a list of compounds.

Tested on: H9c2 cells
Assay: Vitality of H9c2 cells under normoxia or hypoxia (CCK8)
Assay type: cell-based
Settings: 4 h; for viability of hypoxic cells: hypoxic condition (O2≤1%), 0.001-10 μM, FIG. 1B; for effect on the cell viability (toxicity): normoxic condition, high concentration of 10 μM, FIG. 1A
Procedure: The cells were washed twice with 5 mL PBS, 1 mL trypsin was added to digest the monolayer cultured H9c2 cells, a single cell suspension was prepared with serum-containing culture medium, and 5000-10000 cells per well were inoculated in a 96-well culture plate. The volume of culture medium per well is 100 μL, and the edge wells are filled with sterilized pure water. The culture plate was moved into a carbon dioxide incubator for culture for 24 h at 37° C., 5% CO2, and saturated humidity until the cells adhere to the wall. 100 μL culture medium in the well was aspirated, 50 μL fresh culture medium was added into the well, and different concentrations of compounds and reference drug isosorbide dinitrate were given respectively to the well. 50 μL drug was added to each well, 3 parallel groups and 1 normoxic group without drug addition as control were set, and concentration gradient of the drug is 10, 1, 0.1, 0.01, 0.001 μM. The normoxic group was incubated in a normal incubator at 5% CO2 and 37° C. for 4 h; and the hypoxic group was incubated in a hypoxic incubator (concentration of 02≤1%) at 37° C. for 4 h. After the culture was completed, 10 μL CCK8 reagent was added to each well and the normoxic group and the hypoxic group continued to be cultured in a normoxic incubator for 4 h, and the culture was terminated. The absorbance of each well was measured at 450 nm with a microplate reader to calculate the cell survival rate of cells at different concentrations, as shown in FIGS. 1A and 1B.

SMILES	viability of hypoxic cells	effect on the cell viability (toxicity)
Cc1ccc(COC(=O)Oc2ccc(N(C)N=O)cc2)c([N+](=O)[O-])c1 [Compound I7, 4-((methylnitroso)amino) phenyl (2-nitro-4-methylbenzyl) carbonate]	no significant improvement on the viability of hypoxic cells	some effect on the cell viability
CN(N=O)c1ccc(OC(=O)OCc2ccc([N+](=O)[O-])cc2Cl)cc1 [Compound I2, 4-((methylnitroso)amino) phenyl (2-chloro-4-nitrobenzyl) carbonate]	significantly restore the viability of hypoxic cells	some effect on the cell viability
CN(N=O)c1ccc(OC(=O)OCc2cc(Cl)ccc2[N+](=O)[O-])cc1 [Compound I8, 4-((methylnitroso)amino) phenyl (2-nitro-5-chlorobenzyl) carbonate]	no significant improvement on the viability of hypoxic cells	some effect on the cell viability
CN(N=O)c1ccc(OC(=O)OCc2ccc(Br)cc2[N+](=O)[O-])cc1 [Compound I6, 4-((methylnitroso)amino) phenyl (2-nitro-4-bromobenzyl) carbonate]	no significant improvement on the viability of hypoxic cells	some effect on the cell viability
CN(N=O)c1ccc(OC(=O)OCc2ccc(Cl)cc2[N+](=O)[O-])cc1 [Compound I5, 4-((methylnitroso)amino) phenyl (2-nitro-4-chlorobenzyl) carbonate]	no significant improvement on the viability of hypoxic cells	some effect on the cell viability
CN(N=O)c1ccc(OC(=O)OCc2ccccc2[N+](=O)[O-])cc1 [Compound I4, 4-((methylnitroso)amino) phenyl (2-nitrobenzyl) carbonate]	significantly restore the viability of hypoxic cells	some effect on the cell viability
CN(N=O)c1ccc(OC(=O)OCc2ccc([N+](=O)[O-])cc2)cc1 [Compound I1, 4-((methylnitroso)amino) phenyl (4-nitrobenzyl) carbonate]	significantly restore the viability of hypoxic cells	some effect on the cell viability
Cc1ccc([N+](=O)[O-])c(COC(=O)Oc2ccc(N(C)N=O)cc2)c1 [Compound I9, 4-((methylnitroso)amino) phenyl (2-nitro-5-methylbenzyl) carbonate]	no significant improvement on the viability of hypoxic cells	some effect on the cell viability
Cc1cc([N+](=O)[O-])ccc1COC(=O)Oc1ccc(N(C)N=O)cc1 [Compound I3, 4-((methylnitroso)amino) phenyl (2-methyl-4-nitrobenzyl) carbonate]	significantly restore the viability of hypoxic cells	some effect on the cell viability
